# Laboratory results published in PubChem BioAssay AID686978 (National Center for Advancing Translational Sciences (NCATS), 2013).
# Several values for one entry are separate records, joined by “and”; a condition that tells them apart may be missing. Equal entries are not always repeated. Out of some 420,000 compounds screened, about 64,000 (15%) were called active. This list was built around the results that the source calls inconclusive (neither active nor inactive); the mix of calls is not that of the screen. Calls follow the shape of the dose curve; as a rule, active = well fitted inhibition curve with a large enough effect; inconclusive = small, poorly fitted or top-dose-only effect; inactive = flat fitted curve, though single readings scatter. Where the call is inconclusive, the potency comes from a doubtful curve fit.
# Experiment: qHTS for Inhibitors of human tyrosyl-DNA phosphodiesterase 1 (TDP1): qHTS in cells in absence of CPT; also: nearly all actives have a fitted effect of over 55% in size
# Conditions: DT40 Tdp1-/- hTDP1 cells, no CPT, ATP luminescence, 48 h; series mostly up to 46.2 µM
# Method in brief: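 Compound effects on proliferation are scored in DT40 Tdp1-/-;hTDP1 cells in the absence of CPT. ATP levels (CellTiter-Glo luminescence) are recorded after a ≥48 hr, 37 °C incubation.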
# Potency is read from the fitted curve at half-maximal effect; tags tell the direction and shape of the fitted curve.
row,Structure (SMILES),Potency
1,CCN(CC)S(=O)(=O)c1ccc2oc(C(=O)Nc3ccc(OC)cc3OC)c(C)c2c1,active: 11.6 µM
2,CSc1ncc(C(=O)Nc2ccc(C(C)=O)cc2)c(-c2ccccc2)n1,"inactive and inconclusive: 25.9 µM [inhibitor, single point]"
3,COc1ccc(NC(=O)c2cn3c4c(ccc(Cl)c4c2=O)OC(C)C3)cc1OC (stereo not drawn),"inconclusive: 1.46 µM [inhibitor, partial curve]"
4,C=CCn1c(SCC(=O)N2CCOCC2)nc2sc(CC)cc2c1=O,"inconclusive: 29.1 µM [inhibitor, single point]"
5,O=C(NCc1cccnc1)c1ccccc1[N+](=O)[O-],inactive
6,COc1ccc(CN(C)C(=O)c2ccc(COc3ccccc3)cc2)c(OC)c1,active: 9.2 µM
7,CC(C)CCNC(=O)C1CCN(Cc2cccc(OCc3ccccc3)c2)CC1,"inconclusive: 18.4 µM [inhibitor, single point]"
8,O=C(CN1Cc2ccccc2OC(c2ccsc2)C1)N1CCC(c2nc3ccccc3[nH]2)CC1 (stereo not drawn),"inconclusive: 14.6 µM [inhibitor, partial curve]"
9,Cn1c(=O)c2c(ncn2CC(=O)N2CCc3ccccc3C2)n(C)c1=O,inactive
10,CCc1ccc2[nH]c(=O)c(CN(CCN(CC)CC)C(=O)NC3CCCCC3)cc2c1,active: 25.9 µM
11,COc1ccc(CCNc2ccc(C(CC(N)=O)NC(=O)c3ccc(Br)cc3)cc2[N+](=O)[O-])cc1 (stereo not drawn),active: 16.4 µM
12,COc1ccc(-c2nnc(-c3ccc(N)cc3)o2)cc1,inactive
13,Cc1ccc(C2=NN(C(=O)CSc3nc(N)cc(N)n3)C(c3ccco3)C2)cc1 (stereo not drawn),"inconclusive: 20.6 µM [inhibitor, single point]"
14,CCC(Sc1nc2n[nH]c(C)c2c(=N)n1-c1ccc(C)c(Cl)c1)C(=O)N1CCOCC1 (stereo not drawn),"inconclusive: 16.4 µM [inhibitor, single point]"
15,CC12c3ccccc3C(c3ccccc31)C1C(=O)N(Cc3cccnc3)C(=O)C12 (stereo not drawn),"inconclusive: 29.1 µM [inhibitor, single point]"
16,CC(CN1CCCCC1)OC(=O)COc1ccc(Cl)cc1 (stereo not drawn),"inconclusive: 29.1 µM [inhibitor, single point]"
17,O=c1c2cnn(-c3ccc(F)cc3)c2ncn1Cc1ccc(F)cc1,"inconclusive: 29.1 µM [inhibitor, single point]"
18,N#Cc1ccsc1NC(=O)CSc1nnnn1-c1ccc(O)cc1,"inconclusive: 16.4 µM [inhibitor, single point]"
19,CCOC(=O)[C@]12CCC=C1N(Cc1ccc(Cl)cc1Cl)C(=O)[C@H](CC(=O)NCC1CCCCC1)C2,"inconclusive: 29.1 µM [inhibitor, single point]"
20,CCOC(=O)C1CCCN(C2=NC(=O)/C(=C/c3ccc(OC)cc3OC)S2)C1 (stereo not drawn),"inconclusive: 20.6 µM [inhibitor, single point]"
21,CSc1nc(NC(C)=O)nc(C)c1Br,inactive
22,COc1ccc(NC(=O)COc2ccccc2)cc1NC(=O)c1ccco1,"inconclusive: 7.31 µM [inhibitor, partial curve]"
23,Oc1ccc(-c2csc(Nc3ccc4c(c3)OCO4)n2)c(O)c1,inactive
24,COC(=O)c1cccc(NC(=O)CCc2ccccc2)c1,inactive
25,O=C(CCNS(=O)(=O)c1ccc(Br)cc1)NCCc1ccc(Cl)cc1,"inconclusive: 16.4 µM [inhibitor, partial curve]"

row,Structure (SMILES),Potency
1,Cc1cc(-c2ccc(S(=O)(=O)Nc3ccc(Br)c(C)c3)s2)on1,active: 14.6 µM
2,COc1ccc(-c2cc(C(=O)N3CCN(c4ccccc4OC)CC3)no2)cc1,"inconclusive: 23.1 µM [inhibitor, single point]"
3,CCCCn1nnnc1C(c1ccccc1)N1CCN(c2ccc(OC)cc2)CC1 (stereo not drawn),"inconclusive: 29.1 µM [inhibitor, single point]"
4,CC(C)CC(NC(=O)C1CCC(C)CC1)C(=O)NCc1ccccn1 (stereo not drawn),"inconclusive: 18.4 µM [inhibitor, single point]"
5,O=C(Nc1cc(Cl)ccc1N1CCOCC1)c1ccc(N2CCCCC2)c([N+](=O)[O-])c1,"inconclusive: 6.51 µM [inhibitor, partial curve]"
6,O=C(NCc1nnc(SCc2ccc(C(F)(F)F)cc2)n1-c1ccccc1)C12CC3CC(CC(C3)C1)C2,active: 13 µM
7,Cc1csc(N2CCc3ccccc32)n1,inactive
8,CSc1nnc2[nH]c(=O)cc(C)n12,inactive
9,COc1ccccc1NC(=O)c1cc(Cl)nnc1Cl,"inconclusive: 29.1 µM [inhibitor, single point]"
10,CCc1ccccc1Cn1c(=O)oc2cccnc21,inactive
11,CCNc1nc(NCC)n2c(SCC(=O)Nc3ccccc3Cl)nnc2n1,inactive
12,COc1ccc(S(=O)(=O)Nc2ccc3c(c2)C(=O)N([C@H](C)CO)C[C@H](C)[C@@H](CN(C)C(=O)Nc2ccc(C(F)(F)F)cc2)O3)cc1,inactive
13,COc1ccc(N=Nc2cc(C)c(O)c(CN3CCCCC3)c2)cc1,"inconclusive: 25.9 µM [inhibitor, single point]"
14,COCCSc1nnc(NC(=O)CCS(=O)(=O)c2ccccc2)s1,active: 13 µM
15,CC(C)(C)c1ccc(OCCSc2nc3ccccc3n2CC(=O)O)cc1,inactive
16,O=C(Cc1ccccc1)Nc1cccc(C(=O)O)c1O,"inconclusive: 6.51 µM [inhibitor, single point]"
17,CCOc1ccc2oc(=O)cc(CN3CCN(c4ccccc4)CC3)c2c1,"inconclusive: 16.4 µM [inhibitor, single point]"
18,N#Cc1c[nH]n2c(NC3CCCCC3)c(-c3cccc(Cl)c3)nc12,"inconclusive: 25.9 µM [inhibitor, single point]"
19,Cc1ccc(S(=O)(=O)N[C@@H](Cc2ccccc2)C(=O)N2CCC(C(=O)N[C@H](C(=O)O)C(C)O)CC2)cc1 (stereo partly drawn),inactive
20,O=C(Nc1ccc(F)cc1)Nc1ccccc1F,"inconclusive: 16.4 µM [inhibitor, single point]"
21,Cc1cc2nnc(SCC(=O)N(C)C3CCS(=O)(=O)C3)n2c2ccccc12 (stereo not drawn),inactive
22,O=C(O)CC/C(=C\c1cc2c(cc1Br)OCO2)c1nc2ccccc2s1,inactive
23,CCCC(=O)NC(c1ccc(Cl)cc1Cl)c1ccc2cccnc2c1O (stereo not drawn),active: 4.61 µM
24,CC(=O)c1cccc(NC(=O)c2cc3nc(-c4ccc(Br)cc4)cc(C(F)(F)F)n3n2)c1,active: 6.51 µM
25,COCCn1c(C)cc(C(=O)COC(=O)/C=C/c2cccc(OC)c2)c1C,inactive

row,Structure (SMILES),Potency
1,Cc1cnc(C(=O)Nc2cccc3cccnc23)cn1,active: 0.0092 µM
2,O=c1c(S(=O)(=O)c2ccc(Cl)cc2)cn(Cc2ccccc2F)c2ccc(F)cc12,active: 23.1 µM
3,OC(Cc1cccc(Br)c1)c1ncc(-c2ccccc2C(F)(F)F)[nH]1 (stereo not drawn),"inconclusive: 18.4 µM [inhibitor, single point]"
4,COc1cccc2[nH]c(C(=O)NCC3CCCO3)cc12 (stereo not drawn),inactive
5,CCOC(=O)c1cn2nc(Oc3ccc(C)cc3)ccc2n1,"inconclusive: 5.8 µM [inhibitor, full curve]"
6,COc1ccc(C(=O)N/N=C/c2ccc(OC)c(CN3CCN(c4ccc(F)cc4)CC3)c2)cc1,"inconclusive: 7.31 µM [inhibitor, partial curve]"
7,Cc1ccc(CC(=O)Nc2cccc([N+](=O)[O-])c2)cc1,"inconclusive: 16.4 µM [inhibitor, single point]"
8,CCOC(=O)[C@@H]1[C@H]2COc3ccc(Br)cc3[C@H]2N2C(=O)N(c3ccc(F)cc3)C(=O)[C@@]12C,"inconclusive: 29.1 µM [inhibitor, single point]"
9,CSc1ccc(NC(=O)C2(C)CCN2C(=O)c2ccccc2CCc2ccccc2)cc1 (stereo not drawn),"inconclusive: 18.4 µM [inhibitor, single point]"
10,COc1ccc(C)cc1S(=O)(=O)Nc1ccc2c(c1)OCO2,inactive
11,CCc1nnc(N/N=C/c2ccc(N3CCC(C)CC3)c([N+](=O)[O-])c2)n1N,"inconclusive: 29.1 µM [inhibitor, single point]"
12,N#Cc1c(C(F)(F)F)cc(-c2cccs2)nc1SC(C(=O)O)c1ccccc1 (stereo not drawn),"inconclusive: 25.9 µM [inhibitor, single point]"
13,CC(=O)NC1(C(=O)O)CCCC1,inactive
14,O=C(CCN1C(=O)/C(=C/c2ccccc2F)SC1=S)NC1C=CS(=O)(=O)C1 (stereo not drawn),"inconclusive: 25.9 µM [inhibitor, single point]"
15,CC1(C)CC(=O)c2c(O)cc(OCC(=O)Nc3ccc(S(N)(=O)=O)cc3)cc2O1,"inconclusive: 14.6 µM [inhibitor, single point]"
16,O=C(Nc1nccs1)C(F)(F)C(F)(F)C(F)(F)C(=O)Nc1nccs1,inactive
17,CCOC(=O)C1CCN(C(=O)c2ccccc2NS(=O)(=O)c2ccc(F)cc2)CC1,inactive
18,CC(OC(=O)C1=COCCO1)C(=O)NC(C)c1ccc(Cl)cc1Cl (stereo not drawn),inactive
19,Cc1ccc(CNC(=O)[C@H](C)N2C(=O)N3CCc4c([nH]c5ccccc45)[C@@]3(C)C2=O)cc1,"inconclusive: 25.9 µM [inhibitor, partial curve]"
20,C[C@@H](C(=O)NCc1ccccn1)[C@@H]1C[C@@]1(C)[C@@H](NC(=O)OCc1ccccc1)c1ccccc1,active: 13 µM
21,COc1cc(C=O)c(Br)cc1OCC(=O)NCCc1ccccc1,active: 18.4 µM
22,CCOC(=O)C1CCN(CCC(=O)Nc2ccc(OC)cc2)CC1,inactive
23,CCN(CC)c1ccc(/C=N/NC(=O)c2ccc(Br)o2)cc1,"inconclusive: 18.4 µM [inhibitor, single point]"
